In all, about 110,000 compounds were measured (“z-score”: median about -0.1, highest 2% from about 2 on). The list shows a part of the results. The source made the active and inactive calls.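 How the source made its calls: active means z-score in the third read window above 3 or below -3; inactive means the rest.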

For this test, the target named is Metabotropic glutamate receptor 8 (Rattus norvegicus) (UniProt P70579). In words: mGluR8 Gi/Go-coupled signaling modulation – cell-based, rat, thallium flux, HTS, primary screen (AID 488969). The note with it: HEK293 rat mGluR8, GIRK (G protein-gated inwardly rectifying potassium channel) thallium flux, FluoZin2; at 10 µM; stronger effect = higher value; submaximal glutamate (EC20) added with thallium.
Sequence of UniProt P70579 (P70579 whole entry, looked up): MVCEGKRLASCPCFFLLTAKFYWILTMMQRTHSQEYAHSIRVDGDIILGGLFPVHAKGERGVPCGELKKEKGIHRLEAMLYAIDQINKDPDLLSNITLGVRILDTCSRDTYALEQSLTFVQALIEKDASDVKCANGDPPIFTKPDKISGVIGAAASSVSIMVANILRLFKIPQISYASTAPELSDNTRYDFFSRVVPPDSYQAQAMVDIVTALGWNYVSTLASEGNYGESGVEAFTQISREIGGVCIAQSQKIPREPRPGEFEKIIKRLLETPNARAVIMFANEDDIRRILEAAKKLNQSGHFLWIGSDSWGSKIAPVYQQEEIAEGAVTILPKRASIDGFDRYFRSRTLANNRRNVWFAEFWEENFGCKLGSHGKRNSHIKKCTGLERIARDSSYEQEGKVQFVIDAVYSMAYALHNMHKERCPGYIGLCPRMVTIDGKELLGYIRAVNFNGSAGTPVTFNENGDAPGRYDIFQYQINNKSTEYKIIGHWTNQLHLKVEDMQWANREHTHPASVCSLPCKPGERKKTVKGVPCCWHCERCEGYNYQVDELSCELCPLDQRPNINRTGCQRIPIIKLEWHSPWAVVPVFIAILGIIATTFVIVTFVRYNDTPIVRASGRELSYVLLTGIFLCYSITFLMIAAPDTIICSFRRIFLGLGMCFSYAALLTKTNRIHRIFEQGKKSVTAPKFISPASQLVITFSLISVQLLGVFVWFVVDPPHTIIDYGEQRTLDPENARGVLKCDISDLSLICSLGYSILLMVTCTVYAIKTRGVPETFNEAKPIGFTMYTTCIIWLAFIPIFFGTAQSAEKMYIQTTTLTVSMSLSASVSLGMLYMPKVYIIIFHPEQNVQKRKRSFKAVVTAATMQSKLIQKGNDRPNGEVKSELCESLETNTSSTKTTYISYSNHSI
The compound `CCOC(=O)C1CCN(S(=O)(=O)c2ccc(C(C)=O)cc2)CC1` displayed a z-score of -0.000373. As to `Cn1ncc(N=Cc2ccc([N+](=O)[O-])cc2)c1C(=O)N1CCOCC1`, the z-score was found to be 0.282. For `CCCCOc1ccc(NC2=NC3(CCCC3)N=C(N)N2)cc1` the value was 0.944; for `CCCn1c(NCc2ccc(N(C)C)cc2)nc2ccccc21`, 0.4; for `N#Cc1c(NC(NC(=O)c2ccco2)C(=O)c2ccccc2)sc2c1CCCC2` (centres undefined), -0.148.

Turning to `CC1(C)CC(=O)C2=C(C1)N(N1CCOCC1)C(N)=C(C#N)C2c1cccs1` (centres undefined), the z-score came to 0.368.

Compound `COc1ccc(-c2csc(N3CCN(C(=O)c4ccccc4)CC3)n2)cc1` yielded a z-score of 0.126. For `CC(C)N(C)NC(=S)Nc1ccccc1` the value was -0.0718; for `CS(=O)(=O)C1=NSC2=NC(=O)/C(=C\c3cccn3-c3ccc(Cl)cc3)C(=N)N21`, -0.377; for `O=C(Cn1c(=O)sc2ccccc21)OC(CCl)CCl`, -0.0215.

As for `CCCC(=O)Nc1ccc(C(=O)Nc2nc(CC(=O)OCC)cs2)cc1`, the z-score is -0.437. Compound `CC1(C(=O)N/N=C/c2ccc([N+](=O)[O-])o2)CC1(Br)Br` (centres undefined) gave a z-score of -0.0735. With `CCOC(=O)N1CCN(S(=O)(=O)c2ccc(OC)c(Cl)c2Cl)CC1`, the z-score was -0.379.

`COc1ccc(S(=O)(=O)n2oc(=O)cc2-c2ccccc2)cc1`: the z-score is -0.367.

For the compound `Cc1cccc(N2CCN(c3nc4ccccc4n4cnnc34)CC2)c1C`, the z-score was -0.0675. The compound `O=S(=O)(c1cccs1)n1nnc2ccccc21` displayed a z-score of 0.347. Turning to `Cc1nc(NC(=O)C23CCC(C)(C(=O)O2)C3(C)C)sc1C` (centres undefined), the z-score amounted to 0.276. Regarding `COCC(O)CSc1nc(C)[nH]c1[N+](=O)[O-]` (centres undefined), the z-score is -0.437. As for `Cc1cc(OC(=O)c2cc(Cl)nc3ccccc23)ccc1Cl`, the z-score is -0.0067.

In turn, `CCOc1ccc(-c2cc(CCCC(=O)NCCc3ccccc3)no2)cc1` showed a z-score of 0.0401. The compound `O=[N+]([O-])c1ccc(C2CNC(c3ccccc3)O2)cc1` (centres undefined) returned a z-score of 0.872. `Cc1nc(SCc2ccccc2C)n[nH]1` yielded a z-score of 0.561. Compound `CCCNC(=O)C(Cc1ccccc1)NS(=O)(=O)c1ccc2c(c1)CCC(=O)N2` (centres undefined) displayed a z-score of 0.179. `Cc1ccc(N2CC3=C(C2=O)C(c2ccccc2)NC(=O)N3C)cc1` (centres undefined) returned a z-score of -0.193.

As for `COc1ccc(-c2nc(CS(=O)CC(=O)NCc3ccco3)c(C)o2)cc1` (centres undefined), the z-score is 0.179. With `CCOc1ccc(NC(=O)N2CCN(c3nc4ccccc4s3)CC2)cc1`, the z-score is -0.168.

In turn, `Cc1c(NC(=O)CC2CC(C)OC2=O)c(=O)n(-c2ccccc2)n1C` (centres undefined) came in with a z-score of 0.578.

In turn, `COc1ccc(Nc2cccc(Cl)c2)c(C(=O)O)c1` showed a z-score of -0.43. As to `COc1ccccc1NC(=O)N1CCCC1C(=O)NC1CCCCC1` (centres undefined), the z-score stood at 0.0901. For `Cc1ccc(-n2c(SCC(=O)Nc3ccc4c(c3)OCO4)nnc2-c2ccoc2C)cc1`, the z-score is -0.214. In turn, `O=c1cc2c(nn1Cc1ccccc1Cl)-c1ccccc1CC2` had a z-score of 0.215. With `CCN(CCC#N)c1ccc(/C=N/Nc2nc(C)cc(=O)[nH]2)c(C)c1`, the z-score is -0.498. For the compound `O=C(CCCOc1ccc(Cl)cc1Cl)N/N=C\C1CCCCC1`, the z-score is -0.118.

With `O=C(CSc1nnc(COc2ccccc2Cl)o1)NC(=O)NC1CCCC1`, the z-score is -0.637. For `CCC(=O)c1c[nH]c(C(=O)NCCc2ccccn2)c1`, the z-score was -0.0392. Take `CCCCS(=O)(=O)c1sc2nc3c(cc2c1N)CCCC3`: the z-score is -0.167.

With `Cc1nc(NC(=O)CN2CCOCC2)sc1-c1ccccc1`, the z-score turned out to be 0.186. For `CC12COC3(C(=O)Nc4ccc([N+](=O)[O-])cc4)CC1CCC32C` (centres undefined) the value was -0.307; for `COc1cc(OC)cc(C(=O)NCC(=O)OCC(=O)c2ccc3c(c2)-c2ccccc2C3)c1`, 0.13. With `Cn1c(SCc2ccc(Cl)cc2)nc(C(F)(F)F)cc1=O`, the z-score is -0.114. Compound `CCC(=O)NC(=S)Nc1ccc(NC(=O)COc2ccc(Cl)cc2Cl)cc1` came in with a z-score of -0.124.

In the case of `COc1cccc(C2C3=C(CC(C)(C)CC3=O)Nc3cc4c(cc32)OCO4)c1` (centres undefined), the z-score is 2.12.

Compound `Cc1nn(-c2ccccc2)c(C)c1/C=N/NC(=O)c1cc(C23CC4CC(CC(C4)C2)C3)[nH]n1` yielded a z-score of -0.0227. For `O=C(Cn1c(=O)n(-c2ccc(F)cc2)c(=O)c2sccc21)N1CCCC1`, the z-score was -0.657.

As for `Cc1cccc(OCCC(=O)NCC(c2ccco2)N2CCCCC2)c1` (centres undefined), the z-score was 0.65.

Compound `CCOc1ccc(CSC2=NCCN2)cc1[N+](=O)[O-]` had a z-score of -0.766. As to `CCN(CC)c1nc2n(c(=O)n1)CCO2`, the z-score came to 0.0948. The compound `CC1=NN(c2ccc(C)cc2C)C(=O)C1C(c1cccc(O)c1)C1C(=O)N(c2ccc(C)cc2C)N=C1C` (centres undefined) came in with a z-score of -0.151. With `CC(C)OC(=O)c1cccc(NC(=O)c2ccccc2)c1`, the z-score is -0.57.

Regarding `O=C(NCCCn1ccnc1)C(Cc1ccc([N+](=O)[O-])cc1)N1C(=O)c2ccccc2C1=O` (centres undefined), the z-score came to 2.67.

`Cc1cccc2cc(/C=N/NC(=O)c3ccccc3O)c(Cl)nc12` came in with a z-score of 0.0387. Consider `O=C(CSc1nc(C2CC2)nc2ccccc12)N1c2ccccc2Sc2ccc(C(F)(F)F)cc21`, for which the z-score is 0.00774. Take `CCC(C)[C@H](NC(=O)NCc1ccccc1Cl)C(=O)OC` (some centres undefined): the z-score was 0.783. `Cn1c2c(c(=O)n(C)c1=O)C(C(F)(F)F)(C(F)(F)F)N=C(c1ccccc1Cl)N2` displayed a z-score of -0.119. Compound `CCOc1ccc(N=C2NC(=O)C(CC(=O)O)S2)cc1` (centres undefined) registered a z-score of 0.106. On to `CN(C)S(=O)(=O)c1cccc(NC(=O)COC(=O)c2ccc(Br)o2)c1`, for which the z-score worked out at 0.425. `CCOC(=O)c1ccccc1OCc1cc(/C=N/n2cncn2)ccc1OC` displayed a z-score of -0.468. `CC(C)(C)c1ccc(OCC(O)CN(CCO)CC(O)Cn2ccc3ccccc32)cc1` (centres undefined) came in with a z-score of -0.0836. Turning to `CCCOc1ccc(Cn2c(=O)oc3ccc(C)cc32)cc1OC`, the z-score is -0.095. In turn, `COc1ccc(CC(=O)Nc2ccc(S(=O)(=O)NC(C)C)cc2)cc1` yielded a z-score of -0.127. As to `CCC1CC2CC(NC(C)=O)C1C2` (centres undefined), the z-score was -0.383. `O=C(Nc1cccc(Oc2ccc3c(c2)C(=O)NC3=O)c1)c1ccco1` came in with a z-score of 0.659. For `CCOC(=O)c1ccc(CNS(=O)(=O)c2c(C)ccc3nsnc23)o1`, the z-score was determined as 0.587. `O=C1CC(Sc2ncn[nH]2)C(=O)N1c1ccccc1` (centres undefined): the z-score was 0.104. `O=c1nc(-c2ccccc2)cc(C(F)(F)F)[nH]1` had a z-score of -0.557. For `CCCCN(CCCC)S(=O)(=O)c1ccc(N2CCCC2=O)c([N+](=O)[O-])c1`, the z-score is -0.188. `CC(c1ccccc1)N1CC(C(=O)N2CCN(c3ccc(F)cc3)CC2)CC1=O` (centres undefined) had a z-score of -0.22.

`CCCNC(=O)N1CCC(C(=O)c2ccc(Cl)cc2)CC1` came in with a z-score of -0.803. `O=C(CSc1ccc(-c2ccc(Cl)cc2)nn1)N1CCCc2ccccc21` returned a z-score of -0.395. Regarding `Cc1cc(C(=O)CNCc2ccco2)c(C)n1-c1ccc(F)cc1`, the z-score was -0.127. Compound `COc1ccc(-c2nn(CC(=O)N(C)C)c(=O)c3ccccc23)cc1` registered a z-score of 0.38. `COc1ccc2c(CC(=O)OCC(=O)c3ccccc3OC)coc2c1`: the z-score was -0.227.

`O=C(CNC(=O)C12CC3CC(CC(C3)C1)C2)N1CCN(S(=O)(=O)/C=C/c2ccccc2)CC1` gave a z-score of -0.259. `Cc1cc(C)c(OCCNC(=O)c2ccccc2Sc2ccccc2C#N)c(C)c1` displayed a z-score of -0.159.

On to `Cc1nc(-c2cccc(S(=O)(=O)N3CCCC(C)C3)c2)cs1` (centres undefined), for which the z-score is -0.168. `N#Cc1ccc(OCC(=O)NCCc2ccccn2)cc1` came in with a z-score of -0.26.

With `CCCOc1ccc(C(=O)NC(=S)Nc2nc3ccccc3s2)cc1`, the z-score amounted to 0.254. Compound `Cc1cccc(C)c1NC(=S)NN(Cc1ccccc1)c1ccccc1` came in with a z-score of -0.102. For the compound `O=C(COC(=O)CCc1nc2ccccc2s1)Nc1cccc(S(=O)(=O)N2CCOCC2)c1`, the z-score was 1.66. With `CSc1ccc(Cl)c(C(=O)NCc2ccco2)c1`, the z-score is -0.107. Turning to `CCSc1nc(-c2ccccc2)c(C#N)c(=O)[nH]1`, the z-score is active: -3.09.

`Cn1c(-c2ccc3c(c2)OCO3)cnc1NCc1ccc(Cl)cc1`: the z-score was -1.67. Consider `COc1ccccc1CCN1C(=S)NC(C)(C)CC1(C)O` (centres undefined), for which the z-score stood at 0.898.

Regarding `CSc1ccccc1NC(=O)CSc1nnnn1-c1ccccc1SC`, the z-score was -0.42. For `O=C(Nc1nc(-c2cccs2)cs1)c1ccc(S(=O)(=O)N2CCCCC2)cc1` the value was -0.0805; for `Cc1ccc(C(=O)NCc2occc2C(=O)O)o1`, 0.31; for `O=C(NCCc1ccccc1)c1c(F)c(F)c(F)c(F)c1F`, -0.11. For `O=C(OCc1ccc([N+](=O)[O-])cc1)c1ccc(N2CCCC2)c([N+](=O)[O-])c1`, the z-score is 0.344. In turn, `Cc1oc(C(C)(C)C)c(CN2CCCC2)c1C(=O)O` registered a z-score of 0.37. With `O=C(Cn1ncc2c(=O)oc3ccccc3c21)NC1CC1`, the z-score came out at 0.255. The compound `Cc1nc(C)c2c(c1C(F)(F)F)-c1ccccc1C2(F)F` yielded a z-score of -0.325. `Cc1ccc(Cn2nnnc2CN2CCC(NC(=O)c3ccccc3F)CC2)cc1` displayed a z-score of 0.0907.

Turning to `CCOc1ccc(NC(=O)C(C)Oc2ccccc2C(=O)Nc2cccc(Cl)c2Cl)cc1` (centres undefined), the z-score is 0.00389.

Take `Cc1cc(C)cc(NC(=O)CN2CCc3ccccc3C2)c1`: the z-score is -0.0879. Take `CCOC(=O)c1ccc(NC(=O)c2cn(-c3ccccc3)nc2-c2ccncc2)cc1`: the z-score is 0.0205. Turning to `CCOC(=O)Cn1c(=N)n(CCOc2ccc3ccccc3c2)c2ccccc21`, the z-score amounted to 1.25. In turn, `COc1cc(NC(=O)CN(C)S(=O)(=O)c2ccc(C)cc2)cc(OC)c1` returned a z-score of 0.473. In turn, `COc1cccc(CNC(=O)C23CN(Cc4ccccc4)CC2C(c2ccc([N+](=O)[O-])cc2)=NO3)c1` (centres undefined) displayed a z-score of -0.147. For `CN(c1ccc(C(=O)Nc2ccccc2C(=O)N2CCOCC2)cc1)S(C)(=O)=O` the value was 0.153; for `CCOc1ccc(NC(=O)CSc2nnc(-c3ccccc3)n2N)cc1`, 0.513. For `CCCn1c(SCC(=O)/C(C#N)=C(\C)N)n[nH]c1=O` the value was -0.649. For `COc1cccc(OCCNc2cc(N3CCCCC3)ccc2[N+](=O)[O-])c1` the value was -0.298. `O=C(CC1(O)C(=O)Nc2ccccc21)c1ccc(-n2cccc2)cc1` (centres undefined) returned a z-score of -0.227. In turn, `O=C1c2ccccc2NC(c2cccc(F)c2)N1Cc1ccco1` (centres undefined) had a z-score of -1.14.

As to `CCCC(C)C(=O)Nc1ccc(NC(C)=O)cc1` (centres undefined), the z-score is -0.433. `COc1ccc(N2CCN(Cc3cc(=O)oc4ccc(C)cc34)CC2)cc1` registered a z-score of 0.156. Take `Cc1[nH]n(-c2ccc([N+](=O)[O-])cc2)c(=O)c1C=NCCc1c[nH]c2ccccc12`: the z-score was determined as 0.545. Compound `C=CCOC(=O)C1=C(C)NC(SCC(=O)Nc2nccs2)=C(C#N)C1c1ccc(Cl)cc1` (centres undefined) yielded a z-score of -0.171. Take `O=C(c1nn2cccnc2c1Cl)N1CCN(c2ccccc2)CC1`: the z-score came to 0.704.

These data come from PubChem BioAssay AID488969 (Vanderbilt High Throughput Screening Facility, 2010).
